# Out of some 310,000 compounds screened, about 14,000 (4.5%) showed an effect of 50% or more. Effects have a minus sign here. The list shows a part of the results.
# Target: human ether-à-go-go-related gene (hERG) potassium channel (human, UniProt Q12809)
# Assay: primary screen, population patch clamp on CHO cells stably expressing hERG
# 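Further: peak tail current of the secondary pulse compared with the same well before compound.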
# human ether-à-go-go-related gene (hERG) potassium channel, sequence (Q12809 whole entry, looked up): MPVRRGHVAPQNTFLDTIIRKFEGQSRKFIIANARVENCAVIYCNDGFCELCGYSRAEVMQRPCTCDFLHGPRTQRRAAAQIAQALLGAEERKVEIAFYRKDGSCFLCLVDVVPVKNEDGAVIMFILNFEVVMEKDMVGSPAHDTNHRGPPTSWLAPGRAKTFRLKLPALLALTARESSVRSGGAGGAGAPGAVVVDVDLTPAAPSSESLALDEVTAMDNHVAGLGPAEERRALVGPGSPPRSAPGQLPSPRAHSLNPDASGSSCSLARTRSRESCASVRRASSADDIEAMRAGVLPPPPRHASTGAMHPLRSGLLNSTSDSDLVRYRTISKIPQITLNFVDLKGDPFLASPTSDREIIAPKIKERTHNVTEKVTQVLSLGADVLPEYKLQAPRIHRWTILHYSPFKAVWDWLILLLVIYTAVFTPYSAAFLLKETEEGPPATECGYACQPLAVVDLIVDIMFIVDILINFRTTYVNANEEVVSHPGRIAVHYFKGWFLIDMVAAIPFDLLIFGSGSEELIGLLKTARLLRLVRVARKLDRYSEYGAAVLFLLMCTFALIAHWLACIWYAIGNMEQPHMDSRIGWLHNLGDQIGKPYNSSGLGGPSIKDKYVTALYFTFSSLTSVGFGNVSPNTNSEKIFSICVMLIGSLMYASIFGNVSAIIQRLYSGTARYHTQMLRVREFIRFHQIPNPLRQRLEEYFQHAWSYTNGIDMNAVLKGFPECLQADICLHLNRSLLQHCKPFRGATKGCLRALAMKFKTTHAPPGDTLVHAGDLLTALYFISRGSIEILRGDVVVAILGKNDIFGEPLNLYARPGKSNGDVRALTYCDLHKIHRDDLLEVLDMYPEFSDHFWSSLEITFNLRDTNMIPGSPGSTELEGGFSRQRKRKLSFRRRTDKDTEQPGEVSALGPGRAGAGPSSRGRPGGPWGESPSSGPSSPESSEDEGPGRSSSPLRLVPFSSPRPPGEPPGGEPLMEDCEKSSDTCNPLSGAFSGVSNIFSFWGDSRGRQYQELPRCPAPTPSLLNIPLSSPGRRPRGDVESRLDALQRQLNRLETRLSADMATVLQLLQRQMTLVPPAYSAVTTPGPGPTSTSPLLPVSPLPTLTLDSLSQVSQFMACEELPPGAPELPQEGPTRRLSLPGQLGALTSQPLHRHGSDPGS
row,SMILES,"hERG current change (%, negative = inhibition) at 10uM"
1,CCOc1cc(C(=O)N(C)Cc2cc3ccccc3[nH]c2=O)cc(OCC)c1OCC,-0.586%
2,CN(CC(=O)Nc1ccccc1C(F)(F)F)C(=O)c1cc(Cl)nc2ccccc12,-5.24%
3,COc1cccc(CNCCSc2nnnn2C)c1.Cl,1.03%
4,O=C1c2ccccc2NC(c2ccco2)N1/N=C/c1ccco1 (stereo not drawn),9.48%
5,O=[N+]([O-])c1ccc(Nc2nc(N3CCOCC3)nc(N3CCOCC3)n2)cc1,-1.98%
6,CCc1ccc(CNCc2cccs2)cc1.Cl,-22.9%
7,Cl.O=C(CN1CCOCC1)NCc1cc([N+](=O)[O-])ccc1O,16.5%
8,CSc1ncccc1C(=O)N(C)CC(=O)Nc1cccc(F)c1,16.1%
9,CC1CCN(c2c(NCC3CCC(C(=O)NCCCc4ccccc4)CC3)c(=O)c2=O)CC1 (stereo not drawn),-1.04%
10,Cc1nnc(SCC(=O)Nc2ccc(Oc3ccccc3)cc2)n1N,8.97%
11,O=C(c1cc2nc(-c3ccco3)cc(C(F)(F)F)n2n1)N1CCN(c2ccccn2)CC1,-34.9%
12,Nc1ccccc1NC1=CC(=O)CC(c2ccccc2)C1 (stereo not drawn),-2.83%
13,CC(Oc1c(Cl)cccc1Cl)C1=NCCN1.Cl (stereo not drawn),16.7%
14,O=C1Nc2ccccc2C1Cc1ccccn1 (stereo not drawn),7.32%
15,Cc1nc2ccc3nc(NC(=O)c4ccc(S(=O)(=O)N5CCOCC5)cc4)sc3c2s1,3.49%
16,Cc1cc(C)c(C)c(C(=O)C2OC(=O)C(C)(C)C(=O)C2(C)C)c1C (stereo not drawn),7.7%
17,Oc1ccc(Br)cc1-c1cc(-c2ccccc2Cl)[nH]n1,4.01%
18,CCOC(=O)C1CCCN(S(=O)(=O)c2cc(Br)cc3c2N(C(=O)CC)CC3)C1 (stereo not drawn),5.21%
19,CCc1ccc(N(C(=O)c2snc(C(N)=O)c2N)C(C(=O)NCC2CCCO2)c2ccco2)cc1 (stereo not drawn),-13.2%
20,CCC(C(=O)OCC(=O)N(C)c1c(N)n(Cc2ccccc2)c(=O)[nH]c1=O)c1ccccc1 (stereo not drawn),16.9%
21,C=CCn1c(SCC(=O)N2CCCCC2)nnc1-c1ccncc1,9.96%

row,SMILES,"hERG current change (%, negative = inhibition) at 10uM"
1,CCO[C@@H]1OC(C(=O)N2CCN(Cc3ccccc3)CC2)=C[C@H](c2csc3ccccc23)[C@H]1CCCO,10.3%
2,O=C(Cc1ccccc1)c1nnc(-c2ccccc2)o1,44.3%
3,CCc1cc(=O)oc2cc(C)cc(OCC(=O)NC3CC3)c12,-0.388%
4,O=C(NCCc1ccccc1)c1ccc(CS(=O)(=O)Cc2ccccc2F)o1,-19.7%
5,Cc1occc1C(=O)N1CCN(c2ccc([N+](=O)[O-])cc2)CC1,-77.7%
6,Cc1nc(-c2ccccc2)nc2[nH]c(-c3ccccc3)cc(=O)c12,-8.47%
7,CCN1CCc2c(OCc3ccc(C)cc3)cccc2C1=O,-4.07%
8,CCn1cc(CN2CCC(C(=O)Nc3ccc(Oc4cccnc4)cc3)CC2)c(C)n1,-18.4%
9,COCCN(CCOC)S(=O)(=O)c1ccc(OC)cc1,8.79%
10,CCN(c1ccccc1)S(=O)(=O)c1cc(C(=O)NCc2ccco2)ccc1C,-27.7%
11,Cc1cc(C)c2c(N)c(C(=O)Nc3nccs3)sc2n1,5.76%
12,O=C(Nc1cccc(Cl)c1)N(Cc1nc2ccccc2c(=O)[nH]1)Cc1cccs1,-7.01%
13,COc1ccc(CCN2CC(O)=C(c3nc4ccccc4c(=O)[nH]3)C2=N)cc1OC,3.06%
14,Cc1cc([N+](=O)[O-])ccc1NC(=O)COc1nsnc1N1CCOCC1,-29.9%
15,COc1ccc(S(=O)(=O)ON=C2CC(C)(C)N(C(C)=O)C(C)(C)C2)cc1,31.1%
16,CC(=O)c1ccc(OC(=O)/C=C/c2ccccc2)cc1,9.56%
17,CN1C(=O)/C(=C/c2ccccc2Cl)Sc2ccc(C(=O)N3CCCC3)cc21,-3.65%
18,Cc1cc(=O)n(CC(C)C)c(O)c1C#N,21.2%
19,O=P(COCCO)(c1ccccc1)c1ccccc1,-4.96%
20,COC(=O)c1c(Sc2ccccc2)c2ccccc2n1C,11.4%
21,CCN1CCN(c2ccc(S(=O)(=O)N3CCCCC3)cc2NC(=O)/C=C/c2cccc(OC)c2OC)CC1,-18.9%

row,SMILES,"hERG current change (%, negative = inhibition) at 10uM"
1,CCOc1ccc(CCNC(=O)COC(=O)c2cccnc2Cl)cc1OCC,8.39%
2,Cc1ccc(S(=O)(=O)Nc2nc(C)c(C(=O)NN)s2)cc1,8.62%
3,O=c1cc(-c2ccccc2)nc2c(-c3ccccc3)c(C(F)(F)F)[nH]n12,4.16%
4,Clc1cnc(Oc2ccc(Oc3ncc(Cl)cc3Cl)cc2)c(Cl)c1,1.79%
5,COc1cccc(CC(=O)N(CCC2=CCCCC2)c2c(N)n(Cc3ccccc3)c(=O)[nH]c2=O)c1,-9.73%
6,CC1CC(C)CN(C(=O)c2ccc(CNc3c(N4CCCC4)c(=O)c3=O)cc2)C1 (stereo not drawn),-1.14%
7,O=C(NCc1ccc(N2CCCC2=O)cc1)NC1CCCCC1,-5.61%
8,Clc1cc2c(cc1/C=N/Nc1nc(N3CCOCC3)nc(N3CCOCC3)n1)OCO2,0.865%
9,O=C(CNS(=O)(=O)c1ccccc1)NCc1cccnc1,8.46%
10,Nc1c(Cl)cc(C(=O)c2c3ccc([N+](=O)[O-])cc3[n+]([O-])n2CCC[NH3+])cc1Cl.O=C([O-])C(F)(F)F,-43.5%
11,Cc1cnc(C(=O)OCc2c(C)cc(C(C)(C)C)cc2C)cn1,8.68%
12,O=C1CN(C(=O)COC(=O)CCC(=O)c2ccc3c(c2)OCCO3)c2ccccc2N1,-27.2%
13,CC(=O)N1c2ccccc2C(=O)OC1c1cccnc1 (stereo not drawn),19.5%
14,O=C(NCC(=O)N(Cc1ccccc1)C(C(=O)NCC1CCCO1)c1ccccc1)c1ccco1 (stereo not drawn),-9.05%
15,COc1ccc(CCC(=O)NCc2ccco2)cc1,0.176%
16,C[C@@H](NC(=O)C1(c2ccccc2)CCN(C(=O)OC(C)(C)C)CC1)C(=O)N[C@@H](C(=O)O)c1ccccc1,11.6%
17,CN(CC(=O)Nc1cccc(F)c1)C(=O)/C=C/c1cc(Br)ccc1OC(F)F,-54.8%
18,Cc1onc(-c2ccccc2)c1C(=O)N1CCN(c2ccc([N+](=O)[O-])cc2)CC1,-36.4%
19,NS(=O)(=O)c1cccc(NC(=O)COC(=O)CC2CC3CCC2C3)c1 (stereo not drawn),-18.4%
20,C/C(=N\NC(=O)c1cc([N+](=O)[O-])cc([N+](=O)[O-])c1)c1ccco1,4.39%
21,CC(=O)Nc1ccc(S(=O)(=O)N2CCN(c3nc(C)cc(C)n3)CC2)cc1,5.68%

row,SMILES,"hERG current change (%, negative = inhibition) at 10uM"
1,Cc1ccc2nc(-c3ccccc3NC(=O)CCC(=O)O)c(=O)[nH]c2c1,17.1%
2,CCO[C@@H]1OC(C(=O)N2CCN(Cc3ccc4c(c3)OCO4)CC2)=C[C@H](c2ccc(Br)cc2)[C@H]1CCCO,-20%
3,COc1cc(Br)c(CNc2cc(C)ccc2C)cc1OC.O=C(O)C(=O)O,13%
4,Cc1ccc(C(=O)NCC(=O)OCC(=O)NC2CCCCCCC2)cc1,-12.9%
5,COc1cc(OC)c(NC(=O)C2CC(=O)N(c3ccc4c(c3)OCCO4)C2)cc1Cl (stereo not drawn),-5.13%
6,Cn1nnnc1SC(C(=O)Nc1cccc(C(F)(F)F)c1)c1ccccc1 (stereo not drawn),-16.4%
7,CC(=O)n1cc([C@@H]2C=C(C(=O)N3CCN(Cc4ccc5c(c4)OCO5)CC3)O[C@H](OCc3ccc(CO)cc3)C2)c2ccccc21,-17.5%
8,Cc1ccc(N2C(=O)CSC23C(=O)Nc2ccccc23)cc1 (stereo not drawn),4.85%
9,CC(=O)N1CC(c2ccccc2)C(c2ccc(Cl)cc2)=N1 (stereo not drawn),-5.56%
10,O=C(Nc1ccc2c(c1)OCO2)C1CCCCC1,0.102%
11,N#Cc1cccc(NC(=O)CN2CCCCCC2)c1,-10.9%
12,CC(=O)Nc1ccc(NC(=O)CN(c2ccccc2Cl)S(C)(=O)=O)cc1,-3.6%
13,CC(C)c1[nH]nc2c1C(c1ccc(OC(=O)c3ccco3)cc1)C(C#N)=C(N)O2 (stereo not drawn),6.55%
14,CCN(CC)C(=O)c1oc2ccc(S(=O)(=O)N3CC(C)CC(C)C3)cc2c1C (stereo not drawn),13.6%
15,O=c1oc2cc(Oc3ccc(C(F)(F)F)cc3[N+](=O)[O-])ccc2c2c1CCC2,-33%
16,COCCCNC(=O)c1ccc(C(=O)NCCCOC)cc1,-0.736%
17,CC(C)(C)c1ccccc1OCCOCCNCc1ccccc1.O=C(O)C(=O)O,-18.4%
18,CC1CN(S(=O)(=O)c2ccc(NC(=O)c3cc(-c4ccccc4O)n[nH]3)cc2)CC(C)O1 (stereo not drawn),17.5%
19,CCc1nn(CC(=O)NCCc2ccc(Cl)cc2)c(=O)c2cccn12,-19.2%
20,COc1cccc(/C=N/NC(=O)c2ccc(=O)n(C)c2)c1OC,3.32%
21,Nc1c(Cl)c(Cl)nc(C(=O)OCC(=O)NCc2ccccc2)c1Cl,-18.2%
